# Data reported in the supplement of paper PMC8728848.
# The other results are listed elsewhere or left out.
# Columns and labels:
# Experiment in all cases: glycan array binding signal (z-score within array); higher = stronger binding
# Conditions in all cases: glycan notation: IUPAC condensed, linker removed
# Glc(b1-4)Glc = biological target: Glc(b1-4)Glc
# Outline: (§1)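 From the Consortium for Functional Glycomics database, 3228 arrays were curated, keeping only those whose protein sequence was available. Binding is given as a within-array Z-score averaged across arrays sharing a protein sequence and across linkers. Negative Z-scores can be read as non-binding.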
# Glc(b1-6)Glc = biological target: Glc(b1-6)Glc
# Outline: as §1
# GlcA(b1-3)Gal = biological target: GlcA(b1-3)Gal
# Outline: as §1
# GlcA(b1-3)GlcNAc = biological target: GlcA(b1-3)GlcNAc
# Outline: as §1
# GlcA(b1-6)Gal = biological target: GlcA(b1-6)Gal
# Outline: as §1
# [1] = biological target: GlcA3S(b1-3)Gal(b1-4)GlcNAc(b1-2)Man
# Outline: as §1
# [2] = biological target: GlcA3S(b1-3)Gal(b1-4)GlcNAc(b1-3)Gal(b1-4)Glc
# Outline: as §1
# [3] = biological target: GlcNAc(a1-3)Gal(b1-4)GlcNAc
# Outline: as §1
# [4] = biological target: GlcNAc(a1-4)Gal(b1-3)GlcNAc
# Outline: as §1
# [5] = biological target: GlcNAc(a1-4)Gal(b1-4)GalNAc
# Outline: as §1
# [6] = biological target: GlcNAc(a1-4)Gal(b1-4)GlcNAc
# Outline: as §1
# [7] = biological target: GlcNAc(a1-4)Gal(b1-4)GlcNAc(b1-3)Gal(b1-4)Glc
# Outline: as §1
# [8] = biological target: GlcNAc(a1-4)Gal(b1-4)GlcNAc(b1-3)Gal(b1-4)GlcNAc
# Outline: as §1
# [9] = biological target: GlcNAc(a1-4)Gal(b1-4)GlcNAc(b1-3)Gal(b1-4)GlcNAc(b1-3)Gal(b1-4)GlcNAc
# Outline: as §1
# [10] = biological target: GlcNAc(a1-4)Gal(b1-4)GlcNAc(b1-3)Gal(b1-4)[Fuc(a1-3)]GlcNAc(b1-3)Gal(b1-4)[Fuc(a1-3)]GlcNAc
# Outline: as §1
# [11] = biological target: GlcNAc(a1-6)Gal(b1-4)GlcNAc
# Outline: as §1
# [12] = biological target: GlcNAc(b1-2)Gal(b1-3)GalNAc
# Outline: as §1
# [13] = biological target: GlcNAc(b1-2)Man(a1-3)[GlcNAc(b1-2)Man(a1-6)]Man(b1-4)GlcNAc(b1-4)GlcNAc
# Outline: as §1
# [14] = biological target: GlcNAc(b1-2)Man(a1-3)[GlcNAc(b1-2)Man(a1-6)]Man(b1-4)GlcNAc(b1-4)[Fuc(a1-6)]GlcNAc
# Outline: as §1
# [15] = biological target: GlcNAc(b1-2)Man(a1-3)[GlcNAc(b1-4)][GlcNAc(b1-2)Man(a1-6)]Man(b1-4)GlcNAc(b1-4)GlcNAc
# Outline: as §1
# [16] = biological target: GlcNAc(b1-2)Man(a1-3)[GlcNAc(b1-4)][GlcNAc(b1-2)Man(a1-6)]Man(b1-4)GlcNAc(b1-4)[Fuc(a1-6)]GlcNAc
# Outline: as §1
# [17] = biological target: GlcNAc(b1-2)[GlcNAc(b1-4)]Man(a1-3)[GlcNAc(b1-2)Man(a1-6)]Man(b1-4)GlcNAc(b1-4)GlcNAc
# Outline: as §1
# [18] = biological target: GlcNAc(b1-2)[GlcNAc(b1-4)]Man(a1-3)[GlcNAc(b1-4)][GlcNAc(b1-2)Man(a1-6)]Man(b1-4)GlcNAc(b1-4)GlcNAc
# Outline: as §1
# [19] = biological target: GlcNAc(b1-2)[GlcNAc(b1-4)]Man(a1-3)[GlcNAc(b1-4)][GlcNAc(b1-2)[GlcNAc(b1-6)]Man(a1-6)]Man(b1-4)GlcNAc(b1-4)GlcNAc
# Outline: as §1
# [20] = biological target: GlcNAc(b1-2)[GlcNAc(b1-4)]Man(a1-3)[GlcNAc(b1-4)][GlcNAc(b1-2)[GlcNAc(b1-6)]Man(a1-6)]Man(b1-4)GlcNAc(b1-4)[Fuc(a1-6)]GlcNAc
# Outline: as §1
# [21] = biological target: GlcNAc(b1-2)[GlcNAc(b1-6)]Man(a1-6)[GlcNAc(b1-2)Man(a1-3)]Man(b1-4)GlcNAc(b1-4)GlcNAc
# Outline: as §1
# [22] = biological target: GlcNAc(b1-2)[GlcNAc(b1-6)]Man(a1-6)[GlcNAc(b1-2)Man(a1-3)]Man(b1-4)GlcNAc(b1-4)[Fuc(a1-6)]GlcNAc
# Outline: as §1
# [23] = biological target: GlcNAc(b1-2)[GlcNAc(b1-6)]Man(a1-6)[GlcNAc(b1-4)][GlcNAc(b1-2)Man(a1-3)]Man(b1-4)GlcNAc(b1-4)GlcNAc
# Outline: as §1
# GlcNAc(b1-3)Fuc = biological target: GlcNAc(b1-3)Fuc
# Outline: as §1
# GlcNAc(b1-3)Gal = biological target: GlcNAc(b1-3)Gal
# Outline: as §1
# [24] = biological target: GlcNAc(b1-3)Gal(b1-3)GalNAc
# Outline: as §1
# GlcNAc(b1-3)Gal(b1-4)Glc = biological target: GlcNAc(b1-3)Gal(b1-4)Glc
# Outline: as §1
# [25] = biological target: GlcNAc(b1-3)Gal(b1-4)GlcNAc
# Outline: as §1
# [26] = biological target: GlcNAc(b1-3)Gal(b1-4)GlcNAc(b1-2)Man(a1-3)[GlcNAc(b1-3)Gal(b1-4)GlcNAc(b1-2)Man(a1-6)]Man(b1-4)GlcNAc(b1-4)GlcNAc
# Outline: as §1
# [27] = biological target: GlcNAc(b1-3)Gal(b1-4)GlcNAc(b1-2)Man(a1-3)[GlcNAc(b1-3)Gal(b1-4)GlcNAc(b1-2)Man(a1-6)]Man(b1-4)GlcNAc(b1-4)[Fuc(a1-6)]GlcNAc
# Outline: as §1
# [28] = biological target: GlcNAc(b1-3)Gal(b1-4)GlcNAc(b1-2)[GlcNAc(b1-3)Gal(b1-4)GlcNAc(b1-6)]Man(a1-6)[GlcNAc(b1-3)Gal(b1-4)GlcNAc(b1-2)Man(a1-3)]Man(b1-4)GlcNAc(b1-4)GlcNAc
# Outline: as §1
# [29] = biological target: GlcNAc(b1-3)Gal(b1-4)GlcNAc(b1-3)Gal(b1-4)GlcNAc
# Outline: as §1
# [30] = biological target: GlcNAc(b1-3)Gal(b1-4)GlcNAc(b1-3)Gal(b1-4)GlcNAc(b1-2)Man(a1-3)[GlcNAc(b1-3)Gal(b1-4)GlcNAc(b1-3)Gal(b1-4)GlcNAc(b1-2)Man(a1-6)]Man(b1-4)GlcNAc(b1-4)GlcNAc
# Outline: as §1
# [31] = biological target: GlcNAc(b1-3)Gal(b1-4)GlcNAc(b1-3)Gal(b1-4)GlcNAc(b1-2)Man(a1-3)[GlcNAc(b1-3)Gal(b1-4)GlcNAc(b1-3)Gal(b1-4)GlcNAc(b1-2)Man(a1-6)]Man(b1-4)GlcNAc(b1-4)[Fuc(a1-6)]GlcNAc
# Outline: as §1
# [32] = biological target: GlcNAc(b1-3)Gal(b1-4)GlcNAc(b1-3)Gal(b1-4)GlcNAc(b1-2)[GlcNAc(b1-3)Gal(b1-4)GlcNAc(b1-3)Gal(b1-4)GlcNAc(b1-6)]Man(a1-6)[GlcNAc(b1-3)Gal(b1-4)GlcNAc(b1-3)Gal(b1-4)GlcNAc(b1-2)Man(a1-3)]Man(b1-4)GlcNAc(b1-4)[Fuc(a1-6)]GlcNAc
# Outline: as §1
# [33] = biological target: GlcNAc(b1-3)Gal(b1-4)GlcNAc(b1-3)Gal(b1-4)GlcNAc(b1-3)Gal(b1-4)GlcNAc(b1-2)Man(a1-3)[GlcNAc(b1-3)Gal(b1-4)GlcNAc(b1-3)Gal(b1-4)GlcNAc(b1-3)Gal(b1-4)GlcNAc(b1-2)Man(a1-6)]Man(b1-4)GlcNAc(b1-4)GlcNAc
# Outline: as §1
# [34] = biological target: GlcNAc(b1-3)Gal(b1-4)GlcNAc(b1-3)Gal(b1-4)GlcNAc(b1-3)Gal(b1-4)GlcNAc(b1-2)Man(a1-3)[GlcNAc(b1-3)Gal(b1-4)GlcNAc(b1-3)Gal(b1-4)GlcNAc(b1-3)Gal(b1-4)GlcNAc(b1-2)Man(a1-6)]Man(b1-4)GlcNAc(b1-4)[Fuc(a1-6)]GlcNAc
# Outline: as §1
# [35] = biological target: GlcNAc(b1-3)Gal(b1-4)GlcNAc(b1-3)Gal(b1-4)GlcNAc(b1-3)Gal(b1-4)GlcNAc(b1-2)[GlcNAc(b1-3)Gal(b1-4)GlcNAc(b1-3)Gal(b1-4)GlcNAc(b1-3)Gal(b1-4)GlcNAc(b1-6)]Man(a1-6)[GlcNAc(b1-3)Gal(b1-4)GlcNAc(b1-3)Gal(b1-4)GlcNAc(b1-3)Gal(b1-4)GlcNAc(b1-2)Man(a1-3)]Man(b1-4)GlcNAc(b1-4)[Fuc(a1-6)]GlcNAc
# Outline: as §1
# [36] = biological target: GlcNAc(b1-3)Gal(b1-4)GlcNAc(b1-3)Gal(b1-4)GlcNAc(b1-3)Gal(b1-4)GlcNAc(b1-3)Gal(b1-4)GlcNAc(b1-2)Man(a1-3)[GlcNAc(b1-3)Gal(b1-4)GlcNAc(b1-3)Gal(b1-4)GlcNAc(b1-3)Gal(b1-4)GlcNAc(b1-3)Gal(b1-4)GlcNAc(b1-2)Man(a1-6)]Man(b1-4)GlcNAc(b1-4)GlcNAc
# Outline: as §1
# [37] = biological target: GlcNAc(b1-3)Gal(b1-4)GlcNAc(b1-3)Gal(b1-4)GlcNAc(b1-3)Gal(b1-4)GlcNAc(b1-3)Gal(b1-4)GlcNAc(b1-2)Man(a1-3)[GlcNAc(b1-3)Gal(b1-4)GlcNAc(b1-3)Gal(b1-4)GlcNAc(b1-3)Gal(b1-4)GlcNAc(b1-3)Gal(b1-4)GlcNAc(b1-2)Man(a1-6)]Man(b1-4)GlcNAc(b1-4)[Fuc(a1-6)]GlcNAc
# Outline: as §1
binder,measurement,setting,value
"LICBM33A (Lactococcus lactis), Q9CE94 (protein) MKKLLTGLLVAAGLLSVSLLIKTDTVSAHGYVQSPPARGYQGQLDSQSLGWTAAFNIYGNVISNPQSLEAPKGFPECGPADGRIASANGGLGQIGDFVLDNQTSSRWKKTSISTGSNIFTWKYTAPHKTTKWHYYMTKTGWDQNAPLKHSELELIGTINHDGSPATNNLSHTINIPTDRSGYHIVLAVWDVADTSNAFYNVIDINVNNKNASSQVFGPFL",glycan array binding signal (z-score),Glc(b1-4)Glc,-0.321
same,glycan array binding signal (z-score),Glc(b1-6)Glc,0.571
same,glycan array binding signal (z-score),GlcA(b1-3)Gal,-0.362
same,glycan array binding signal (z-score),GlcA(b1-3)GlcNAc,-0.435
same,glycan array binding signal (z-score),GlcA(b1-6)Gal,-1.11
same,glycan array binding signal (z-score),[1],-0.733
same,glycan array binding signal (z-score),[2],-0.244
same,glycan array binding signal (z-score),[3],-0.357
same,glycan array binding signal (z-score),[4],-0.555
same,glycan array binding signal (z-score),[5],-0.536
same,glycan array binding signal (z-score),[6],-0.621
same,glycan array binding signal (z-score),[7],-0.708
same,glycan array binding signal (z-score),[8],-0.4
same,glycan array binding signal (z-score),[9],-0.457
same,glycan array binding signal (z-score),[10],-0.819
same,glycan array binding signal (z-score),[11],-0.723
same,glycan array binding signal (z-score),[12],-0.103
same,glycan array binding signal (z-score),[13],0.585
same,glycan array binding signal (z-score),[14],0.279
same,glycan array binding signal (z-score),[15],0.06
same,glycan array binding signal (z-score),[16],-0.254
same,glycan array binding signal (z-score),[17],-1.28
same,glycan array binding signal (z-score),[18],-0.18
same,glycan array binding signal (z-score),[19],-0.369
same,glycan array binding signal (z-score),[20],-0.549
same,glycan array binding signal (z-score),[21],0.904
same,glycan array binding signal (z-score),[22],2.67
same,glycan array binding signal (z-score),[23],-0.104
same,glycan array binding signal (z-score),GlcNAc(b1-3)Fuc,-0.015
same,glycan array binding signal (z-score),GlcNAc(b1-3)Gal,-1.21
same,glycan array binding signal (z-score),[24],-0.258
same,glycan array binding signal (z-score),GlcNAc(b1-3)Gal(b1-4)Glc,-0.699
same,glycan array binding signal (z-score),[25],-0.369
same,glycan array binding signal (z-score),[26],-0.125
same,glycan array binding signal (z-score),[27],-0.978
same,glycan array binding signal (z-score),[28],-1.17
same,glycan array binding signal (z-score),[29],-0.448
same,glycan array binding signal (z-score),[30],0.07
same,glycan array binding signal (z-score),[31],-0.307
same,glycan array binding signal (z-score),[32],-0.509
same,glycan array binding signal (z-score),[33],-0.201
same,glycan array binding signal (z-score),[34],0.156
same,glycan array binding signal (z-score),[35],-0.443
same,glycan array binding signal (z-score),[36],4.98
same,glycan array binding signal (z-score),[37],1.45
